Legend:
[1] = target: T1, mouse IL-2Rαβγc (on CTLL2-STAT5 reporter cells) (mouse, UniProt P01590 22-268; P16297 27-539; P34902 23-369); test: cell-based or functional assay
T1 sequence (looked up) 1: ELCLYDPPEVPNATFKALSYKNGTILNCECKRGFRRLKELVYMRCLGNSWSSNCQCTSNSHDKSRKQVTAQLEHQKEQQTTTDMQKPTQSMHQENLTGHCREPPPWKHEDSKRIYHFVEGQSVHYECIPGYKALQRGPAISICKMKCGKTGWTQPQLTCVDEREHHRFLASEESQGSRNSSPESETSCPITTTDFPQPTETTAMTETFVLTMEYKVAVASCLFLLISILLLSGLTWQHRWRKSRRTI
T1 sequence (looked up) 2: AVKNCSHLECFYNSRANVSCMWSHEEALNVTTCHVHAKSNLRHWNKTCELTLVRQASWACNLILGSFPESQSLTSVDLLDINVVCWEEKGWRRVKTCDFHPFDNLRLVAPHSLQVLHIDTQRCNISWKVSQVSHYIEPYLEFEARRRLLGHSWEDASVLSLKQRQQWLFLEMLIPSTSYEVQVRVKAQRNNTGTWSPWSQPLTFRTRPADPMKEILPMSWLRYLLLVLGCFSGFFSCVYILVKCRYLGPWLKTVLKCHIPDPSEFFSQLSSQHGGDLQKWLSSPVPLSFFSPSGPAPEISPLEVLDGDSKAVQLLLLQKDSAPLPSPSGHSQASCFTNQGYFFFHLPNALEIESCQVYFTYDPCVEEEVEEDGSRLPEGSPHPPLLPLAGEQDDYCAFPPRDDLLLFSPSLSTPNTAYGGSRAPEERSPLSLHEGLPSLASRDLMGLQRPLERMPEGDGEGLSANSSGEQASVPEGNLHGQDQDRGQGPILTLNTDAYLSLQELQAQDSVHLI
T1 sequence (looked up) 3: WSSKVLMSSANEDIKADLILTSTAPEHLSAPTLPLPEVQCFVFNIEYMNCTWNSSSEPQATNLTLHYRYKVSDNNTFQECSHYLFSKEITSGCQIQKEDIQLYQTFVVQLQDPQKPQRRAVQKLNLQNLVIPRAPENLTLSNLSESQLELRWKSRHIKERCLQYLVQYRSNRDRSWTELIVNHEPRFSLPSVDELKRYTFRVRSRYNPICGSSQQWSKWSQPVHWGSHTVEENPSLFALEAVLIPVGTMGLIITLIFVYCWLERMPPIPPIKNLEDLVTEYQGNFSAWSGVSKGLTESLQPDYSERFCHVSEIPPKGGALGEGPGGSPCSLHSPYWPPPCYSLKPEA

[2] = target: T2, Cynomolgus IL-2Rα, His tag (Table 10) (cynomolgus monkey, UniProt H6WS54 22-213); test: SPR (Biacore T200), receptor captured on anti-histidine surface
T2 construct: not shown: polyhistidine tag (tag cell printed once at r13)
T2 sequence: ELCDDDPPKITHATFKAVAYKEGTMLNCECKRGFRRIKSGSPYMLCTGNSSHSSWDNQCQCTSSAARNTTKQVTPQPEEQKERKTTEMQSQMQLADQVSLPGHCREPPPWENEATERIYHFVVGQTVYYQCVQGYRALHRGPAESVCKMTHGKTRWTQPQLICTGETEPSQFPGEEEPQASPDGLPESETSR
Procedure: (§1) A Surface Plasmon Resonance (SPR) assay on a Biacore T200 (GE Healthcare) instrument was used to determine the monovalent affinities of pegylated aldesleukin variants against polyhistidine-tagged or Fc-tagged IL-2 Receptors. Biacore T200 Evaluation Software was used to fit each titration series to a 1:1 binding model or steady state affinity. The association (kₒₙ, M⁻¹ s⁻¹) and dissociation (koff, s⁻¹) rate constants were determined for each set of titrations and used to calculate the dissociation constant, KD=koff/kₒₙ, of each sample against each receptor. koff/kₒₙ values are not reported herein.
(§2) To measure the affinity of CON1 and aldesleukin for IL-2R subunits, receptors were captured on either an anti-histidine or anti-hu Fc antibody surface. […] CON1 has a six-fold lower affinity for Human and Cynomolgus/Rhesus IL-2-Rβ than aldesleukin.

[3] = target: T3, Mouse IL-2Rα, His tag (Table 10) (mouse, UniProt P01590 22-236, limits assumed); test: as above
T3 construct: not shown: polyhistidine tag (tag cell printed once at r13)
T3 sequence (looked up): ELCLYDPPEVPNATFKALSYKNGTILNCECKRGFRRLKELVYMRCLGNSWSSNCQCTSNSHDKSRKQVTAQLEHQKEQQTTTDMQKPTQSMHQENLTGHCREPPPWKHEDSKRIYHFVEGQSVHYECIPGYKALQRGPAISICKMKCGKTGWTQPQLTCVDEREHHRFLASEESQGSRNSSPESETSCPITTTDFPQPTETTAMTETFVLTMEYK
Procedure: as §1, §2

[4] = target: T4, Human IL-2Rβ, His tag (Table 10) (human, UniProt P14784 27-239, limits assumed); test: as above
T4 construct: not shown: polyhistidine tag
T4 sequence (looked up): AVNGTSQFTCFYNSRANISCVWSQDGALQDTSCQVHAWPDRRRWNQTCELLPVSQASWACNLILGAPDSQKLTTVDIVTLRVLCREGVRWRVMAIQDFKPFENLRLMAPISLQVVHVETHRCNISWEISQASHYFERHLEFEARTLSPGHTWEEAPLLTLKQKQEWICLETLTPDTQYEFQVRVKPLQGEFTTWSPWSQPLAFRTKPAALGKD
Procedure: as §1, §2

B1: Ald-6HIS (ligand)
chain: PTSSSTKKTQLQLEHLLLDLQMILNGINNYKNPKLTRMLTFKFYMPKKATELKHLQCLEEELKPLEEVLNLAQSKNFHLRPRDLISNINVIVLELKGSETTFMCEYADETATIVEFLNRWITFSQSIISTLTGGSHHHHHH
notes: also called aldesleukin with carboxyl-terminus HIS6-tag linked via a Gly-Gly-Ser linker
With B1 the “STAT5-CTLL2 EC50” value [1] was 0.009 nM and the “STAT5-CTLL2 EC50 Fold Change” value [1] was 1 fold.

B2: Aldesleukin (DesA1_IL-2_C124S) (ligand)
chain: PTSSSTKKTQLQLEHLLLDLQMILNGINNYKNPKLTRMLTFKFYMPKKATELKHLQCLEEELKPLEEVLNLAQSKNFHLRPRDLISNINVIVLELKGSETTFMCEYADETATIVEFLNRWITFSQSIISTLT
B2 was tested, and the “KD/KD (human)” value [2] was 0.6 ratio, the Kd [2] was 9.9 nM and the “KD/KD (human)” value [3] was 0.8 ratio. The Kd [3] was 12 nM, the “KD/KD (human)” value [4] was 1 ratio and the Kd [4] was 730 nM.

Source: patent publication US20210340207A1 (Merck Sharp & Dohme, published 2021)
